Publication PMC10668032
The other results are listed elsewhere or left out. At the low end of the ranking the order means little.

Biological target: SIX1-Q177R homeodomain (UniProt Q15475)
Experiment: universal protein binding microarray
Conditions: Universal all-10-mer PBM (8x60K, AMADID 030236), 300 nM GST-tagged protein, Alexa Fluor 488 anti-GST; buffer, salt, pH and temperature not stated; high values mean tight binding; most listed sequences are background and not binding sites; double strand, one strand shown

Sequence | binding signal [E-score]
GGACGACC | 0.0234
AATTGGAT | 0.00487
AAACCTTC | 0.00346
AGGAGAAC | 0.0487
CTTATTAA | -0.0906
AAACTTTA | -0.124
CCCTGCGA | -0.00361
CTAATAAC | 0.0482
GATGGGCC | -0.266
GGACGGAC | -0.0176
AAGATATT | 0.00664
ACAAGTTA | -0.0966
TATCATCA | -0.0496
CAGTACTG | 0.0989
AATTGCAT | -0.269
CTGCTAAC | -0.0377
CTAGTCAA | -0.163
CCCATTAA | 0.0458
AAAATAGT | -0.104
CGTAGCAC | 0.172
AGTCTGGG | -0.148
ACAGTTCA | -0.00547
CGCAAAAC | 0.0653
GATTGTAC | -0.206
ACGGTAGA | 0.103

Sequence | binding signal [E-score]
GGGACGAC | 0.0211
CGTGGACA | 0.0767
CATAATAA | 0.0227
GCAAGACA | 0.0505
ACCTACTG | 0.105
AACAATAT | -0.122
AGGACCGA | -0.197
GTGCACGA | 0.108
CGATGGGC | -0.223
GACCTAAA | -0.23
AAAGTAGA | -0.203
CACGTACG | 0.167
AACCACCC | 0.0693
GTCTTGAA | -0.135
GGCTCTAA | -0.0892
GACGGCAA | -0.0789
ACCCTGAG | 0.245
ACCTAGGG | 0.0206
CCATGTTC | -0.248
AACTGTTG | -0.0919
CTTAAATC | -0.107
CTACCTTC | -0.00206
GCTATCAA | -0.116
ATACAGAT | -0.184
GGAATATA | -0.229

Sequence | binding signal [E-score]
CTTCAACA | 0.291
CTAGATGC | 0.0939
AGGTGCAT | 0.132
AGCCCTAT | -0.128
AATCTAAT | -0.224
ACACACTA | 0.267
AACGTAGC | -0.188
CTCGCTTC | -0.0499
ACAAAGAT | -0.2
CTCGGTAA | -0.00451
AAAACAGT | -0.147
GCGATACA | 0.0566
AACCCAGG | 0.116
ACAATACT | -0.0405
CGTGAATC | -0.0854
ATAATAGC | -0.259
TACTGTCA | -0.0491
CCCCTGAG | 0.16
ATACTACA | 0.257
CCGGACTC | -0.00484
AGCCTTCG | -0.131
AAGACGGA | -0.0267
GCCAGACA | -0.0215
AGCAGCTC | -0.218
AATGCTCA | -0.262

Sequence | binding signal [E-score]
CGGGCAAG | -0.143
CACGCGCC | 0.0899
GACGAATC | -0.0478
TTACGTAA | -0.132
GTGTGGAA | 0.193
ACATACGG | -0.105
GGCTCTCA | -0.0529
CTGTCTCA | -0.248
CTTTGAAC | -0.0558
GCCTGAAA | -0.171
AATGCAGG | 0.09
CCTTGTTA | 0.104
AACGTGTC | 0.348
GCAACAAC | -0.138
CATAGCTA | -0.187
GACGGAGC | -0.16
ATAAGGAG | -0.0209
GGCATCAA | -0.0214
ACCCTGCA | 0.126
AGATGCCT | -0.0963
CCTAACCG | -0.0833
GGTCACTA | 0.0841
ACGAAGAG | 0.000745
AGTGCCAG | 0.0886
TCTCAAAA | -0.0633

Sequence | binding signal [E-score]
AGGTCATG | -0.21
AAACCCTG | 0.0476
CAGTCGGA | -0.128
TCTTTACA | 0.0412
GATAGAGA | -0.191
ATCAACGC | -0.0859
GATAAAGC | -0.327
ACCACCAA | 0.0115
ATATTCGC | -0.103
GCCACCGC | -0.181
CCTTTCAA | -0.0648
ACTTCCAT | -0.129
TATGAGAA | -0.118
CCTCTGTC | -0.0993
ATAGCAAG | -0.111
CTATGCGA | 0.0083
CTCGAATC | -0.00424
AGTACGAC | -0.0218
CTATCCCC | 0.104
ATGTAACC | -0.0301
AACTCAAA | -0.0671
AAAACAAG | -0.126
TATTGCAA | -0.0155
AGTCGTAA | -0.091
CTTTTAAC | -0.12

Sequence | binding signal [E-score]
AGGTGCGG | 0.187
AAAAATGT | -0.314
AGTAAGAT | -0.121
TCCTGACA | 0.0983
CGAGTGGC | 0.0371
ATGGTACA | 0.18
ACGATCTG | -0.0758
CGAGTCCA | 0.0587
AAAAATTG | -0.0634
TACACAAA | 0.247
CCTCGTTC | 0.0187
CCGTCAAG | -0.198
ATTGTCTG | 0.0124
GTCCGCCA | 0.0427
AGGCTCGA | -0.259
TAGGGCAA | -0.0796
ATTGTTTG | -0.234
GAGAATGC | -0.151
GAATCCGC | -0.0437
GCGAGTCA | 0.114
GGGTAAAC | 0.193
AAGGTCAC | -0.1
GTCCATTA | -0.03
ACGCGAGA | 0.0711
CAGAGACG | 0.0584

Sequence | binding signal [E-score]
TCTTACCA | -0.0502
ATTGCAAG | -0.203
TGCAAGCA | -0.26
CCATGCAA | -0.0619
GCCATACA | -0.0965
CACTGCAG | 0.0411
GAAGACGA | 0.0912
AATTACCC | 0.119
TGTAATAA | 0.137
AGGGACTA | -0.185
CAGAAGGG | 0.157
AAAATGCA | -0.137
AAGGGACA | 0.267
GTCTAAAA | -0.121
ACATAGGG | 0.012
ATTGTCAA | -0.00375
CGCCCATC | -0.0988
AAAGCCAA | -0.17
AAATCTTA | -0.0878
CCTGCGCA | -0.0375
AAAGTCGC | -0.148
ATGACAAA | -0.063
